“And” between values parts separate entries of the source, which are not always exact repeats. Identical values can stand only once. In all, about 110,000 compounds went through this assay and about 230 (0.21%) showed an effect of 50% or more. The list shows a part of the results.
Target: DPAP1 (Plasmodium falciparum, UniProt Q8IIJ9)
Experiment: primary screen, percent inhibition; read by cleavage of a fluorogenic dipeptide substrate; higher = more effect of the substance
Parameters: species or system P. falciparum D10 trophozoite lysates; single well
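Also: 30 min substrate incubation versus DMSO and 10 µM JCP410 controls.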

DPAP1, sequence (Q8IIJ9 whole entry, looked up): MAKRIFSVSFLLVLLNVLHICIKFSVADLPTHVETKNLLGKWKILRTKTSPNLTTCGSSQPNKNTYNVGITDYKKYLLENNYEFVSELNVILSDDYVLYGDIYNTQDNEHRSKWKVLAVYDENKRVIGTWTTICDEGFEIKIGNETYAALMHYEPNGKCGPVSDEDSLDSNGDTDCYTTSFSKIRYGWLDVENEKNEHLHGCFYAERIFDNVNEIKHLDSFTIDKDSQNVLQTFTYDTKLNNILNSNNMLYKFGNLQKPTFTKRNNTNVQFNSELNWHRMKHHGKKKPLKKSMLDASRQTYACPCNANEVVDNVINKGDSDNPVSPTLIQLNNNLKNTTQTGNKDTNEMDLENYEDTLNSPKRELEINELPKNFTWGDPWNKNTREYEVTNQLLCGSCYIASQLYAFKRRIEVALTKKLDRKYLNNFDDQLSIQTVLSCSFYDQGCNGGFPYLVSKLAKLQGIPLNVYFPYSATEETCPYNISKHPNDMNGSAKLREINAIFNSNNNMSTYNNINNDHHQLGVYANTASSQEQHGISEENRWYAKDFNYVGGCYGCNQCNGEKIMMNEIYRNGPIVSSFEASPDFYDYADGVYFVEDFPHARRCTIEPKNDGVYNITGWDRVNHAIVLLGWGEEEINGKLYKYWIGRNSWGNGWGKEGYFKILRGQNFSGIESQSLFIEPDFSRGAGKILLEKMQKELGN

| SMILES | % Inhibition @ 10 uM |
| --- | --- |
| COc1ccc(-c2ccc3c(N)c(C(=O)NCCc4ccccc4)sc3n2)cc1OC | 6.63% |
| O=C(Cn1ncn2nc(-c3cccs3)cc2c1=O)NC1CCCc2ccccc21 (stereo not drawn) | 2.27% |
| CCN(CC)CC(=O)N1c2ccccc2Sc2ccc(Cl)cc21 | 1.27% |
| CCOC(=O)c1cnc2c(Cl)cccc2c1NCCN1CCOCC1 | 5.41% |
| Cc1ccc(C(=O)Nc2cc(C)cc(C)c2)cc1 | 1.62% |
| COc1ccc(C(=O)Nc2nc3nc(C)c(Cc4ccccc4)c(O)n3n2)cc1 | 3.66% |
| CSCC[C@@H](C(=O)NC1CCCCC1)N1Cc2ccccc2C1=O | 4.54% |
| COc1ccc2c(CNCCC3=CCCCC3)c(C(=O)O)n(C)c2c1 | -2.39% |
| O=c1c2c3c(sc2nc2n1CCCCC2)CCCCC3 | -1.57% |
| O=C(Nc1ccc(F)cc1)c1ccccc1NC(=O)c1ccccc1C(=O)O | -2.65% |
| Cn1c(=O)c2[nH]c(-c3ccc(Cl)cc3)c(O)c2n(C)c1=O | 0.67% |
| NC(=S)N/N=C/c1sc(O)nc1Cl | 0.222% |
| COc1ccc(N2C(=O)/C(=C\c3ccc(Cl)cc3)S(=O)(=O)C2c2ccc(Cl)cc2)cc1 (stereo not drawn) | -1.91% |
| C=CCN1CC(c2nc3ccccc3n2Cc2ccccc2C)CC1=O (stereo not drawn) | -7.24% |
| O=C(O)c1ccccc1C(=O)Nc1ccc(S(=O)(=O)Nc2ccc(F)cc2)cc1 | -2.03% |
| Cc1cccc(N2C(=O)CC(N3CCN(c4ccccc4)CC3)C2=O)c1 (stereo not drawn) | -0.48% |
| O=C(Nc1ccc(N2CCCCC2)cc1)c1cccc(F)c1 | -2.09% |
| Cc1cc(C)nc(NS(=O)(=O)c2ccc(NC(=O)COc3ccc(Cl)c(C)c3)cc2)n1 | 5.25% |
| O=C(NCCN1CCOCC1)c1cc(-c2ccccc2)on1 | -3.33% |
| COc1ccc(N2CCN(Cc3cccc(O)c3)CC2)cc1 | 3.9% |
| CCC(c1nc2ccccc2n1C)C(O)(c1ccccc1)c1ccccc1 (stereo not drawn) | -4.18% |
| CCC(C(=O)N1CCOCC1)n1nc(C)n2c(cc3cc(C)ccc32)c1=O (stereo not drawn) | -3.79% |
| O=C(c1ccncc1)N1CCC(c2c[nH]c3ccccc23)(c2c[nH]c3ccccc23)CC1 | 1.03% |
| CCc1nn(CC(=O)NCCc2ccc(OC)c(OC)c2)c(=O)c2cc3cc(F)ccc3n12 | 3.29% |
| CN(Cc1ccccc1)C(=O)c1cc2n(n1)C(C(F)(F)F)CC(c1ccccc1)N2 (stereo not drawn) | -2.6% |
| CCOCCCNC(=O)c1oc(=O)c2ccccc2c1-c1ccc(C)cc1 | 1.9% |

| SMILES | % Inhibition @ 10 uM |
| --- | --- |
| CC1=C(C(=O)OCC2CCCCC2)C(c2ccccc2Cl)CC(=O)N1 (stereo not drawn) | -2.24% |
| N=C1/C(=C/c2ccc(O)cc2)C(=O)N=C2SC(COc3ccccc3)=NN12 | -1.6% |
| Cc1ccccc1NC(=O)C(C)Oc1ccccc1 (stereo not drawn) | -6.39% |
| Cc1ccccc1CSCc1ccc(C(=O)NCc2ccco2)o1 | 1.41% |
| O=C(N(Cc1ccccc1)c1ccccn1)C12CC3CC(CC(C3)C1)C2 | -4.18% |
| Cc1ccc2nsnc2c1NC(=O)c1ccc2c(c1)OCCO2 | -0.725% |
| c1ccc2c(CNc3ccc(CNc4nc[nH]n4)cc3)cccc2c1 | -1.61% |
| CCOc1cc(CN2CCN(c3cccc(C(F)(F)F)c3)CC2)ccc1O | -5.65% |
| CC(=O)N1CCN(c2csc3ccccc3c2=O)CC1 | -0.972% |
| CCOC(=O)N1CCN(CC(O)COc2ccc(C34CC5CC(CC(C5)C3)C4)cc2)CC1 (stereo not drawn) | 0.343% |
| CC1(C)Cc2c(cnn2-c2ccccc2)-c2[nH]c3ccccc3c21 | 4.42% |
| CC(C)CCN1CCC(CNS(=O)(=O)c2ccc(-c3cc(C(F)(F)F)no3)s2)CC1 | 9.33% |
| O=C(CSc1nc2ccccc2nc1N1CCOCC1)N1CCN(Cc2ccccc2)CC1 | -1.72% |
| NS(=O)(=O)c1ccc(CCNC(=O)c2cc3c(nc2O)CCCC3)cc1 | -5.72% |
| COc1cc(-c2noc(CCCC(=O)NCc3ccccc3)n2)cc(OC)c1OC | 2.21% |
| CC(=O)N1C2=C(CCCC2)C(=O)NC12CCCCC2 | -3.12% |
| CC(C)C(C(=O)Nc1cccc(Cl)c1)N1C(=O)c2ccccc2C1=O (stereo not drawn) | -4.82% |
| Cc1cc(C)n(CCCNC(=O)C(=O)NCCCn2nc(C)cc2C)n1 | 8.27% |
| CSc1nc(O)c2cnn(-c3ccc(C)cc3)c2n1 | -1.54% |
| O=[N+]([O-])c1ccc2[nH]c(-c3ccc(O)nn3)nc2c1 | -1.97% |
| CCN(CC)C(=O)CSc1nnc(-c2ccc(OC)cc2)o1 | -1.26% |
| O=C(Nc1ccccc1Br)c1ccccc1F | -4.94% |
| CCCCC(=O)Nc1ccc(C)cc1NC(=O)CCCC | -2.24% |
| OC1=C2C(=Nc3ncnn3C2c2ccc(Cl)cc2Cl)CCC1 (stereo not drawn) | -3.37% |
| COc1ccc(C2C(C(=O)c3ccc(Cl)cc3)=C(O)C(=O)N2c2ccc(NC(C)=O)cc2)cc1 (stereo not drawn) | 2.82% |
| CCOC(=O)c1c(S(=O)(=O)N2CCN(C(=O)c3ccco3)CC2)c(C)n(C)c1C | 1.26% |

| SMILES | % Inhibition @ 10 uM |
| --- | --- |
| Cn1c(=O)[nH]c(O)c(/C=C/c2ccnc3ccccc23)c1=O | 0.279% |
| O=C1Nc2ccccc2C1=C1CCCCC1 | 39.9% |
| C=CCOC(=O)c1cn(CC)c2nc(C)ccc2c1=O | -1.69% |
| CCCCc1ccc(C=C2C(=O)c3ccccc3C2=O)s1 | 0.273% |
| NC(=O)NC(c1ccccc1)c1ccc(Cl)cc1 (stereo not drawn) | 4.61% |
| Cc1ccc(NC(=O)CSc2nc(N)cc(N)n2)c(C)c1 | -1.55% |
| COc1ccc(CN2CCN(c3ccc(C(C)=O)cc3)CC2)cc1Br | 5.45% |
| N#CCNC(=O)[C@H](Cc1cc(Cl)c(O)c(Cl)c1)NC(=O)c1ccc(Cl)cc1 | 0.173% |
| CS(=O)(=O)Nc1ccccc1C(=O)NCCc1ccccc1 | 2.95% |
| CC1=C(C(=O)Nc2ccccc2C)C(c2ccccc2F)NC(=O)N1 (stereo not drawn) | 47.4% |
| CCCc1ccc2c(N)c(C#N)sc2n1 | -3.63% |
| O=C(NC1CCCCC1)c1cc(-c2ccccn2)nc2ccccc12 | -5.8% |
| Cc1ccc2nc3c(cc(C(=O)NC4CCCCC4)c(=N)n3Cc3cccnc3)c(=O)n2c1 | -3.27% |
| COc1ccccc1C(=O)NCc1ccc2c(c1)OCO2 | -3.04% |
| CNCCCC1Sc2ccccc2Oc2ccccc21 (stereo not drawn) | -5.59% |
| CCO/N=C1/CC(c2ccccc2)Cc2noc(C)c21 (stereo not drawn) | -0.902% |
| CCCCCC(=O)c1c(C)[nH]c(C(=O)OCC)c1C | -0.771% |
| CCCN1CCC(N2CCN(C/C=C/c3ccccc3)CC2)CC1 | -3.27% |
| Cc1nc2cc3sc(C)nc3cc2s1 | -2.91% |
| Cc1nc(S(=O)(=O)N(C)Cc2ccccc2)c(C#N)c(C)c1Cl | 0.503% |
| Cc1ccnc(NC(=O)c2cccs2)c1 | -8.17% |
| CCC(=O)N(CCN(C(=O)CC)c1ccccc1)c1ccccc1 | -2.58% |
| CNC(=O)/C(=C\c1ccco1)NC(=O)c1ccc(C)cc1 | 0.76% |
| CC(CN1CCOCC1)C(=O)c1ccccc1 (stereo not drawn) | -1.82% |
| CCc1cc(=O)oc2c(C)c3c(cc12)CN(Cc1ccc(OC)c(OC)c1)CO3 | 0.895% |
| O=C(Cc1ccccc1)Nc1c(-c2ccccc2)nc2ccccn12 | 0.813% |

| SMILES | % Inhibition @ 10 uM |
| --- | --- |
| COc1ccc(C=O)cc1Cn1c(=O)n(CC(=O)NCc2ccccc2Cl)c(=O)c2sccc21 | 1.82% |
| CS(=O)(=O)N1CCN(Cc2ccc(C(F)(F)F)cc2)CC1 | 4.65% |
| O=C1CC(c2csc(-c3ccccc3)n2)C2(CCCCC2)O1 (stereo not drawn) | 4.15% |
| O=C(CSc1ncnc2c1sc1nc(N3CCOCC3)c3c(c12)CCCC3)Nc1ccccn1 | -5.41% |
| O=C(O)CSc1ccccc1C(=O)O | -3.21% |
| O=C(NC1CCCCC1)/C(=C\c1ccco1)NC(=O)c1ccc(Cl)cc1 | -2.44% |
| FC(F)(F)c1ccc(N2CCN(c3ccc(Cl)nn3)CC2)nc1 | -0.551% |
| CCn1c2ccccc2c2cc(CNc3ccc(Br)c(C)c3)ccc21 | -4.75% |
| O=C(NCc1ccccc1)N[C@@H](Cc1ccc2ccccc2c1)C(=O)N[C@@H](CCc1ccccc1)C(=O)C[N+](=O)[O-] | -2.35% |
| O=C(c1ccc(CNS(=O)(=O)c2cccc(Cl)c2)cc1)N1CCCCC1 | 4.57% |
| CC(C)OCCCn1c(=O)c2ccccc2n2c(CCC(=O)NCc3ccco3)nnc12 | -1.44% |
| CCCCOC(=O)/C(=C/C=C/c1ccccc1)NC(=O)c1ccccc1 | 0.685% |
| Cc1nc(CSc2nnc(-c3ccc(Cl)cc3)o2)cs1 | -2.63% |
| CC(NC(=O)c1noc2c1COc1ccccc1-2)c1ccc2c(c1)OCCO2 (stereo not drawn) | 21.3% |
| COc1cccc(C(c2c(O)oc3ccccc3c2=O)c2c(O)oc3ccccc3c2=O)c1 | 7.49% |
| CCC/N=C1\CC(c2ccccc2)CC(O)=C1C(=O)CCC (stereo not drawn) | -4.76% |
| CCCCCCSc1nc2nc(C)cc(C)n2n1 | -3.01% |
| COc1ccc(-c2cnc3ncnc(O)c3n2)cc1 | 2.44% and 0.907% |
| COc1ccc(C2NCCc3cc(OC)c(OC)cc32)cc1OC (stereo not drawn) | -5.5% |
| O=C(Nc1ccc2ccccc2c1)c1ccc(Br)o1 | -2.24% |
| Cc1cc(C)c(OCCNC(C)(C)C)c(Cl)c1 | -2.97% |
| C=CCSc1nc2cc(OC)ccc2[nH]1 | -0.582% |
| Cc1ccc(C)c(N(CC(=O)NC2CC3CCC2C3)S(=O)(=O)c2ccccc2)c1 (stereo not drawn) | -4.56% |
| O=C(O)CCc1ccc(-c2ccccc2)n1-c1cc(Cl)ccc1O | 5.52% |

From article PMC6919601, “Identification of Plasmodium dipeptidyl aminopeptidase allosteric inhibitors by high throughput screening” (PLoS ONE, 2019)
